Here are results for 89 molecules from publication PMC4336329 (PLoS ONE, 2015).

The campaign covered roughly 310,000 compounds. About 2,200 (0.71%) showed an effect of 50% or more. The effect is printed as a negative number. This is one part of the list.

Chain of human ether-à-go-go-related gene (hERG) potassium channel (Q12809 whole entry, looked up): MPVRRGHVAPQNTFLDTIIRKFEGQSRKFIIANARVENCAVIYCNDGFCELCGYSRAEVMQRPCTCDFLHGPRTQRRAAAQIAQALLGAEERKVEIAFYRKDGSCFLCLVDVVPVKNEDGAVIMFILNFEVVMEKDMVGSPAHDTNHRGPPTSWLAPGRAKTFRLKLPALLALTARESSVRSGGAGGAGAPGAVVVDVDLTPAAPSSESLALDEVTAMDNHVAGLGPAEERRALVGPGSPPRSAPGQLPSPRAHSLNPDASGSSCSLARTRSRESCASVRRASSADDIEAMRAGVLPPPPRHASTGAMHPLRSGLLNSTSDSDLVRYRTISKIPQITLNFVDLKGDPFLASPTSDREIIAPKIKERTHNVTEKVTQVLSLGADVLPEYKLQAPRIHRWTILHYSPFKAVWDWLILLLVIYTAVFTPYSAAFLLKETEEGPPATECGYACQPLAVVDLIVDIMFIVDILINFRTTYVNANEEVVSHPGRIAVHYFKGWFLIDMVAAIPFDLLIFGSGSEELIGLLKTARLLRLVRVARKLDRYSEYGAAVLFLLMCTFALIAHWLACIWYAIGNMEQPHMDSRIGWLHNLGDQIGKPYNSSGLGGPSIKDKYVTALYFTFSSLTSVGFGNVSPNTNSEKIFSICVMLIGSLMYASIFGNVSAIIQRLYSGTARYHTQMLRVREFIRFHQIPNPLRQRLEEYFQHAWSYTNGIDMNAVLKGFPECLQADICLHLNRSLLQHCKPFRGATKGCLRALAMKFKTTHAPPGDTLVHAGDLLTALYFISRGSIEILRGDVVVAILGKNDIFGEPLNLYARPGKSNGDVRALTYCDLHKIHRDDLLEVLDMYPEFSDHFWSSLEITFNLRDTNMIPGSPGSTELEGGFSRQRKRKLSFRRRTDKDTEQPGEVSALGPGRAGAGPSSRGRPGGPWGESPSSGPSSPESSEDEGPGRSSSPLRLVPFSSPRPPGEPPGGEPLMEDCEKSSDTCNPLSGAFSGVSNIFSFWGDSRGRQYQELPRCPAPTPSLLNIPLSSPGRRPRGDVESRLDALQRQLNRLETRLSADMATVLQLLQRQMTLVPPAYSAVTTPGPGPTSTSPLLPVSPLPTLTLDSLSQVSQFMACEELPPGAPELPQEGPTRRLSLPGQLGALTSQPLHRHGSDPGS

The experiment addresses human ether-à-go-go-related gene (hERG) potassium channel (human, UniProt Q12809). Kind of experiment: primary screen, population patch clamp on CHO cells stably expressing hERG.
Turning to `CC(=O)c1ccc(C(=O)N2CCCC(C(=O)c3cc(F)ccc3F)C2)s1` (centres unmarked), the “hERG current change (%, negative = inhibition) at 1uM” value worked out at 9%.
Next, `CCOC(=O)c1ccc(N2C(=O)CC(N3CCC(O)(c4ccc(Cl)cc4)CC3)C2=O)cc1` (centres unmarked): 11.3%.
Next, `N#Cc1cc2c(nc1SCc1cccnc1)CCCCC2`: 6.53%; `COc1ccccc1N=c1oc2cc(O)ccc2cc1C(=O)NCC1CCCO1` (centres unmarked): 5.19%.
Consider `O=C(NCc1ccccc1)C1CCN(S(=O)(=O)N2CCOCC2)CC1`, for which the “hERG current change (%, negative = inhibition) at 1uM” value is on record as 1.6%.
In the case of `O=C(Nc1ccc(S(=O)(=O)N2CCCCC2)cc1)c1ccc(CN2CCc3ccccc3C2)cc1`, the “hERG current change (%, negative = inhibition) at 1uM” value turned out to be 8.4%.
In the case of `O=C(Nc1cccc(/C=C/c2nc3ccccc3c(=O)[nH]2)c1)c1ccccc1Cl` it was -3.57%; in that of `COc1ccc(C(=O)N2CCCC(Nc3ccc(F)c(F)c3)C2)c(OC)n1` (centres unmarked), 19.8%; in that of `CCOC(=O)C1C(=O)Nc2nc3ccccc3n2C1C(C)C` (centres unmarked), -2.15%.
Next, `CCC(=O)NC(=S)NNC(=O)c1ccc(O)cc1`: 14.5%.
For the molecule `CC(Sc1nc2ccccc2c(=O)n1CC1CCCO1)C(=O)NC(C)c1ccccc1` (centres unmarked), the “hERG current change (%, negative = inhibition) at 1uM” value came out at 5.74%.
Next, `Nn1c(SCC(=O)Nc2ccc3c(c2)OCO3)nnc1-c1ccccc1`: -1.21%.
Next, `Cn1c(NCCCN2CCOCC2)nc2c1c(=O)n(Cc1ccc(Cl)cc1)c(=O)n2C`: -1.96%; `CCn1cnc2c(cnn2-c2ccccc2)c1=O`: 14.3%.
In the case of `O=C(Nc1ccncc1)c1cc(-c2cccc(Br)c2)nc2ccccc12` it was 6.75%.
Take `O=C(CS(=O)(=O)c1ccccc1)Nc1nnc(-c2cccs2)o1`: the “hERG current change (%, negative = inhibition) at 1uM” value is listed as 8.66%.
On to `Nc1nonc1-n1nnc(C(=O)N/N=C/C=C/c2ccccc2)c1CSC1=NCCS1`, for which the “hERG current change (%, negative = inhibition) at 1uM” value is reported as 3.57%.
Consider `Cc1ccccc1CC1(CO)CCCN(C(=O)Cc2c(F)ccc(F)c2F)C1` (centres unmarked), for which the “hERG current change (%, negative = inhibition) at 1uM” value came out at 14.9%.
In the case of `CCOC(=O)CNC(=O)CSc1nnc(NC(=O)c2ccccc2Cl)s1`, the “hERG current change (%, negative = inhibition) at 1uM” value is reported as 13.9%.
Next, `O=S(=O)(N1CCCCCC1)N1CCN(S(=O)(=O)N2CCCCC2)CC1`: -7.57%; `CCCCCCC(=O)Nc1nnc(CC)s1`: 2.95%; `CCOC(=O)N1CCN(C(=O)C2CCN(S(=O)(=O)c3ccc(C)cc3)CC2)CC1`: 1.63%.
Next, `O=C(NCc1ccccn1)Nc1ccccc1F`: 15.7%; `CC(CCc1ccccc1)N1CCN(C)CC1` (centres unmarked): 6.6%.
Consider `COc1ccc(C2=NOC(C)(c3nnc(-c4ccc(Cl)cc4)o3)C2)cc1` (centres unmarked), for which the “hERG current change (%, negative = inhibition) at 1uM” value is listed as -15%.
Next, `O=C(O)COc1ccc(/C=C/c2ccc3cccc([N+](=O)[O-])c3n2)cc1`: 4.28%; `CCCn1c(SCC(=O)Nc2c(CC)cccc2CC)nnc1C(C)C`: 11.8%.
In the case of `Cc1cccc(C)c1N(CC(=O)N/N=C/c1cc(Br)c(C)o1)S(C)(=O)=O` it was 0.352%.
In the case of `COc1cc(/C=N/NS(=O)(=O)c2ccc(C)cc2)ccc1OCc1ccc(C(=O)O)cc1` it was 1.13%; in that of `CCOC(=O)C(=O)Nc1ccc(F)cc1`, 9.9%.
Take `CCC(C)CN1CCC(CO)(Cc2ccccc2Cl)CC1` (centres unmarked): the “hERG current change (%, negative = inhibition) at 1uM” value is listed as -1.97%.
For `CC(C)Nc1nc(NC(C)(C)C)nc(Oc2ccc(=O)n(C)n2)n1`, the “hERG current change (%, negative = inhibition) at 1uM” value is -2.23%.
As for `O=C1CCCc2ccccc2N1Cc1ccc(F)cc1`, the “hERG current change (%, negative = inhibition) at 1uM” value is on record as 15%.
As for `c1ccc2cc3[nH]c(CN4CCOCC4)nc3cc2c1`, the “hERG current change (%, negative = inhibition) at 1uM” value is on record as 9.64%.
Consider `Cc1cccc(C(=O)OCC(=O)N(C)c2ccccc2)c1C`, for which the “hERG current change (%, negative = inhibition) at 1uM” value was determined as 5.54%.
In the case of `CCC(=O)NCCc1nc2ccccc2n1CC`, the “hERG current change (%, negative = inhibition) at 1uM” value was found to be 15%.
Next, `Fc1ccc(NC(=S)NC2CCN(Cc3ccccc3)CC2)cc1`: 6.75%; `O=C(/C=C/c1ccccc1[N+](=O)[O-])NCCN1C(=O)S/C(=C\c2ccc(F)cc2)C1=O`: 13.3%; `O=C1CSC2(CCCCC2)N1CCO`: 12.4%.
For `Cc1cc(C)c2c(N)c(C(=O)NC3CC3)sc2n1`, the “hERG current change (%, negative = inhibition) at 1uM” value was determined as 7.69%.
With `O=C(OCCNC(=O)c1ccc2ccccc2n1)c1ccc(F)cc1`, the “hERG current change (%, negative = inhibition) at 1uM” value stood at 4.77%.
In the case of `COc1ccc(C(=O)NNC(=O)CSc2nnc(C)n2CC2CCCO2)cc1` (centres unmarked) it was 13.2%.
In the case of `O=C(COc1ccc(Cl)cc1)N1CCN(S(=O)(=O)c2ccccc2)CC1` it was -13.2%.
Take `NC(=O)Cc1nc2scc(-c3ccc(Cl)cc3)c2c(=O)[nH]1`: the “hERG current change (%, negative = inhibition) at 1uM” value is reported as 6.36%.
Next, `O=C(Oc1ccnc2cc(Cl)ccc12)N1CCOCC1`: 6.64%; `O=C(CN(Cc1ccc(Cl)cc1)S(=O)(=O)c1ccccc1)NCC1CCCO1` (centres unmarked): 6.36%.
Next, `CCOc1nc(C)cc(COC)c1C(N)=O`: 2.79%; `COC(=O)[C@@H]1C[C@@]2(O)[C@H](O)[C@H](O)[C@H](O)C[C@H]2N1Cc1ccc(C(C)(C)C)cc1`: 14.7%.
For `COc1ccccc1OCc1ccc(C(=O)N2CCN(C)CC2)o1`, the “hERG current change (%, negative = inhibition) at 1uM” value came to 0.39%.
`NCCCC[C@H]1CNC(=S)N1CC1CCCCC1`: the “hERG current change (%, negative = inhibition) at 1uM” value amounted to 16.9%.
As to `CC(C)Cn1c(N)c(C(=O)COC(=O)Cc2cccc(C(F)(F)F)c2)c(=O)n(C)c1=O`, the “hERG current change (%, negative = inhibition) at 1uM” value is -6.75%.
In the case of `CC(C)OCCCNC(=O)C1CCC(=O)N1C(C)C` (centres unmarked) it was -1.9%; in that of `COc1ccc(N2C(=O)[C@@H]3C(c4cccnc4)=NO[C@@H]3C2=O)cc1`, 11.7%; in that of `CCCn1nnc(NC(=S)NC(=O)c2cccs2)n1`, 3.69%.
In the case of `COc1cc(/C=N/NC(=O)C(Cc2c[nH]c3ccccc23)NC(=O)OCc2ccccc2)cc([N+](=O)[O-])c1O` (centres unmarked) it was 7.07%.
In the case of `C=CCN(CC=C)CCOc1ccc2ccccc2c1.O=C(O)C(=O)O` it was 2.75%; in that of `Cc1[nH]c(=S)c(C#N)c(C)c1CC(=O)c1ccc(Br)cc1`, 12.7%; in that of `CS(=O)(=O)N(CC(=O)NC1CCCC1)c1cccc(F)c1`, -11.5%.
`N=c1oc2ccc3ccccc3c2cc1-c1nc(-c2ccccc2)cs1`: the “hERG current change (%, negative = inhibition) at 1uM” value amounted to 5.75%.
Take `O=CN1CCN(C(=O)c2cc3cc(Cl)ccc3[nH]2)CC1`: the “hERG current change (%, negative = inhibition) at 1uM” value came to 5.52%.
Next, `CC1=CS/C(=C(/C#N)C(=O)N2CCOCC2)N1c1ccccc1`: 13.9%.
Next, `COc1ccc(-c2ncn(CCC#N)c2[N+](=O)[O-])cc1`: 9.08%.
As to `COc1cccc(-n2nnc3c(=O)n(CC(=O)Nc4cc(C)on4)cnc32)c1`, the “hERG current change (%, negative = inhibition) at 1uM” value was determined as 16%.
In the case of `CSc1cccc(NC(=S)N(CCC(C)C)C2CCN(C(C)=O)CC2)c1` it was 0.742%; in that of `O=C(CN(Cc1ccccc1)S(=O)(=O)c1ccc(F)cc1)NCc1cccnc1`, -31.9%; in that of `C=CCN(c1ccccc1)S(=O)(=O)c1cccc(C(=O)OCC(=O)NCCOC)c1`, 2.49%.
Next, `Cc1cc(=O)n2nc(N3CCCC(C(=O)NCc4cccc(Cl)c4)C3)sc2n1` (centres unmarked): -14.9%.
For the molecule `Cc1ccc(S(=O)(=O)Nc2cccc(C(=O)N3CCN(c4ccccc4O)CC3)c2)cc1F`, the “hERG current change (%, negative = inhibition) at 1uM” value is listed as 1.17%.
`Cc1ccnc(SCCn2c(N(C)Cc3ccccc3)nc3c2c(=O)n(C)c(=O)n3C)n1`: the “hERG current change (%, negative = inhibition) at 1uM” value came to 0.694%.
On to `CC(C)(C)c1ccc(OCC(=O)NNC(=O)C2CCCO2)cc1` (centres unmarked), for which the “hERG current change (%, negative = inhibition) at 1uM” value amounted to 11.5%.
In the case of `O=C(NCc1ccco1)c1ccc2nccnc2c1` it was -24.1%.
Next, `CCc1ccc(NC(=O)N2CCN(c3ccccc3)CC2)cc1`: 12.7%; `CN(C)c1nc(NCc2ccccc2)nc(N/N=C/c2ccc(Cl)cc2Cl)n1`: 20.3%; `Cc1csc2ncnc(N3CCN(C(=S)Nc4ccc(C(F)(F)F)cc4)CC3)c12`: 8.21%.
With `CCCc1c(C(=O)N/N=C/C(C)=C/c2ccco2)nnn1-c1nonc1N`, the “hERG current change (%, negative = inhibition) at 1uM” value worked out at 8.25%.
In the case of `COC(=O)CSc1nc(NC(C)=O)nc(C)c1Br` it was 1.91%.
In the case of `Cc1noc(C)c1CSCC(=O)N(C)CC(=O)Nc1ccccc1C(F)(F)F`, the “hERG current change (%, negative = inhibition) at 1uM” value is 14.8%.
In the case of `CCn1c(C)nc2cc(C(=O)NNS(=O)(=O)c3c(C)c(C)cc(C)c3C)ccc21` it was -0.83%.
In the case of `CC(Oc1ccc([N+](=O)[O-])cc1)C(=O)NCC1CCCO1` (centres unmarked), the “hERG current change (%, negative = inhibition) at 1uM” value came out at 9.28%.
`COc1ccc(NC(=O)COC(=O)c2cccc(S(=O)(=O)N3CCCCC3)c2)c(OC)c1`: the “hERG current change (%, negative = inhibition) at 1uM” value turned out to be 4.49%.
Next, `Cc1ccc(/C(=N\S(=O)(=O)c2ccc(Br)cc2)Nc2ccccc2C)cc1`: 6.23%; `CC1=NOC(=O)/C1=C/c1ccc(O)c(Cl)c1`: 13.6%; `Cc1ccc(Cn2c(=O)c3c(nc4n3CCN4Cc3ccco3)n(C)c2=O)cc1`: 1.58%.
In the case of `COc1cccc(-n2nnc3c(=O)n(CC(=O)Nc4ccccc4C)cnc32)c1` it was 3.6%; in that of `CC1(C)CC(NC(=O)COc2ccc3c4c(c(=O)oc3c2)CCCC4)CC(C)(C)N1`, 11.3%.
In the case of `CCN(C(=O)c1cnc(OC)cc1C(F)(F)F)c1ccc(Cl)cc1`, the “hERG current change (%, negative = inhibition) at 1uM” value stood at 8.24%.
In the case of `CN(CC1CCCN(CCc2ccc(F)cc2)C1)C(=O)CCC(F)(F)F` (centres unmarked) it was -31.6%; in that of `CCCC(=O)N1CCc2cc(OC)c(OC)cc2C1COc1ccccc1OC` (centres unmarked), 13.6%; in that of `CC(C)CC(=O)c1c[nH]c(C(=O)N2CCN(Cc3ccccc3)CC2)c1`, 2.04%.
